# Article PMC4336329 (PLoS ONE, 2015)
# Screen size: about 310,000 compounds; about 14,000 (4.5%) showed an effect of 50% or more. Effects have a minus sign here. The list shows a part of the results.
# Molecular target: human ether-à-go-go-related gene (hERG) potassium channel (human, UniProt Q12809)
# Assay: primary screen, population patch clamp on CHO cells stably expressing hERG
# 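Also: peak tail current of the secondary pulse compared with the same well before compound.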
# Chain of human ether-à-go-go-related gene (hERG) potassium channel (Q12809 whole entry, looked up): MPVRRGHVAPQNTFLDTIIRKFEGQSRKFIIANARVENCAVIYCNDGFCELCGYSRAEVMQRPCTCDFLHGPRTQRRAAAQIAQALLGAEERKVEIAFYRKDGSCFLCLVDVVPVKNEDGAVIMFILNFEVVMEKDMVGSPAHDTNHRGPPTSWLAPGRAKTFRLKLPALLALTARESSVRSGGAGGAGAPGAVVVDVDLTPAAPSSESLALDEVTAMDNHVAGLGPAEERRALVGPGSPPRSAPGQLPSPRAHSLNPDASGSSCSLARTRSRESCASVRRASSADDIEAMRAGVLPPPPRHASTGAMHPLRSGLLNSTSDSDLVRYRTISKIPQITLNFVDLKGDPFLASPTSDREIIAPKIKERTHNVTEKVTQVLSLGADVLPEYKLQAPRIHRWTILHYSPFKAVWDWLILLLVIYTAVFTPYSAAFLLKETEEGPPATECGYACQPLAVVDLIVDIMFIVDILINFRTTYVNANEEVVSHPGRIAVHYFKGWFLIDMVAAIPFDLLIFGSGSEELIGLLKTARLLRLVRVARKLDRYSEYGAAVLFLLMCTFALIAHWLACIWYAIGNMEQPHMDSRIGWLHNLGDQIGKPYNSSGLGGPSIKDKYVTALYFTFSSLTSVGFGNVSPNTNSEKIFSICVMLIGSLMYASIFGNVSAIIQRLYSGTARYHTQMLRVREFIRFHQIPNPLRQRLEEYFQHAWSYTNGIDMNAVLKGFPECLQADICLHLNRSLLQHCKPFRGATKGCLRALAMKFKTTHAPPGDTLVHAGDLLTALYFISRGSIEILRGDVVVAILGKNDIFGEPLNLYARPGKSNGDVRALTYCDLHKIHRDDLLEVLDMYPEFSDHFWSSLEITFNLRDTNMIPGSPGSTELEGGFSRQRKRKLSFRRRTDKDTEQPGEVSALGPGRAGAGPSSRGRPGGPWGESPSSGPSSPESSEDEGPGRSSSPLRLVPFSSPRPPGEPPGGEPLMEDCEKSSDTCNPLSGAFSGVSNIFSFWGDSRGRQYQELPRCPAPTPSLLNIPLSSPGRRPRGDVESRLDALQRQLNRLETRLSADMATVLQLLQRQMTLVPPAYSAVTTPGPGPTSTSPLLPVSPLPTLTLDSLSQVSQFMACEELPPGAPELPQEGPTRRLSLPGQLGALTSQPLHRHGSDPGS
row,SMILES,"hERG current change (%, negative = inhibition) at 10uM [%]"
1,COc1ccc(C(=O)NC(C)CCn2cccn2)cc1OC1CCN(C(C)C)CC1 (stereo not drawn),15.1
2,COc1ccccc1C1(CCNC(C)c2cccs2)CCOC(C(C)C)C1 (stereo not drawn),-6.82
3,COc1ccc(C(=O)Nc2cccc(NC(=O)c3ccc(OC)cc3OC)n2)c(OC)c1,24.1
4,COc1ccccc1N(CC(=O)NCc1ccco1)S(=O)(=O)c1ccc(C)cc1,7.01
5,C=CCNC(=S)N(Cc1ccccc1)Cc1ccc(F)cc1,-17.3
6,c1ccc(-c2cc(NCCN3CCCCC3)c3ccccc3n2)cc1,-44.5
7,COc1ccc(-c2c(C)nc(N)nc2-c2ccc(OCc3ccc(C)cc3)cc2O)cc1OC,4.25
8,CCC(=O)N/N=C(\C)CC(=O)Nc1cc(Cl)ccc1C,8.49
9,Cc1c(C(=O)O)oc2ccc(S(=O)(=O)N3CC(C)CC(C)C3)cc12 (stereo not drawn),11.9
10,COCCN1CCn2c(nc3cc(NC(=O)c4cccs4)ccc32)C1,-5.84
11,CN(CC(=O)Nc1ccc(Cl)c(C(F)(F)F)c1)C(=O)C1CCCO1 (stereo not drawn),-0.286
12,COc1cccc(-c2nnc(SC(C(=O)c3c[nH]c4ccccc34)c3ccccc3)n2C)c1 (stereo not drawn),17.6
13,Cc1cc(O)c(CN(C)C)c2c1C(=O)/C(=C/c1ccco1)O2,3.97
14,COc1cccc(C2C(C(=O)c3sc(C)nc3C)=C(O)C(=O)N2CCN2CCOCC2)c1 (stereo not drawn),10.8
15,Cc1ccc(C2C(C(=O)c3cccs3)=C(O)C(=O)N2c2nnc(C)s2)cc1 (stereo not drawn),8.18
16,Cc1cccc(OCCCC(=O)Nc2ccc(S(N)(=O)=O)cc2)c1,13.8
17,O=C(Nc1ccc2ccccc2n1)c1ccc(Cl)cc1,13.1
18,CC(C)(C)c1ccc(-n2ncc3c2CCCC3NC(=O)C2=NNC(=O)CC2)cc1 (stereo not drawn),-35.6
19,O=C1NC2(CCOc3ccccc32)C(=O)N1CC(=O)N(Cc1ccccc1)C1CCS(=O)(=O)C1 (stereo not drawn),15.7
20,CC(C)(C)NC(=O)NC(=O)C[n+]1ccc(Cc2ccc([N+](=O)[O-])cc2)cc1.[Cl-],-5.27
21,COC(=O)Nc1ccc(S(=O)(=O)N2CCCC(C(=O)N3CCCCCC3)C2)cc1 (stereo not drawn),0.43
22,CCC1SC2=NCCN2C1(O)c1ccc(Cl)cc1 (stereo not drawn),-15.7

row,SMILES,"hERG current change (%, negative = inhibition) at 10uM [%]"
1,O=C1CC(c2ccccc2)n2nc(N3C(=O)c4ccccc4C3=O)nc2N1 (stereo not drawn),-4.36
2,CSc1c(CN2CCN(C)CC2)c2ccccc2n1C.Cl,12.8
3,Cc1csc(=Nc2cccnc2)n1CC1CCCCC1,-2.76
4,CN1CCN(C(=O)c2ccc3c(c2)N(Cc2ccc(Cl)cc2)C(=O)c2ccccc2S3=O)CC1 (stereo not drawn),-7.16
5,Cc1cc(C)c(OCCN(C)C)c(Cl)c1.O=C(O)C(=O)O,-21.1
6,Cc1cc(O)cc(C)c1Cl,-2.78
7,N#Cc1cccc(C#N)c1NCC1CCCO1 (stereo not drawn),16.2
8,O=S1(=O)C[C@H]2NC(=S)N(c3ccccc3)[C@H]2C1,20.5
9,Cc1onc(-c2ccccc2)c1C(=O)NNC(=S)NC(=O)/C=C/c1ccccc1,16.2
10,Cc1sc(NC(=O)CN2CCOCC2)nc1-c1ccc2c(c1)CCN2S(=O)(=O)c1ccccc1,0.0192
11,CN1C(=O)c2cccc3c(S(=O)(=O)Nc4ccc(O)c(C(=O)O)c4)ccc1c23,-14.5
12,O=S1(=O)CCN(Cc2ccccc2Cl)CC1,-11.1
13,CCCn1c(NC(=O)c2ccc(Cl)c(S(=O)(=O)N3CCCC3)c2)nc2ccccc21,7.74
14,Cc1ccccc1NC(=O)COC(=O)CCSc1ccccc1,25.9
15,CCCCn1c(N)c(N(Cc2ccccc2OC)C(=O)c2ccc([N+](=O)[O-])s2)c(=O)[nH]c1=O,3.38
16,COc1ccc(-c2c(C)n([O-])c(C)c(C)[n+]2=O)cc1,-4.52
17,Nc1nnc(Cc2c[nH]c3ccccc23)s1,-12
18,O=c1c(C=NCc2cccs2)c(O)n(C2CCCCC2)c(=O)n1C1CCCCC1,8.72
19,Cc1ccc(OCC(=O)N(Cc2ccccc2)c2ccccn2)cc1,14.1
20,COC(=O)Oc1ccc(/C=N/NC(=O)CN(c2ccccc2Cl)S(C)(=O)=O)cc1OC,-14.2
21,CC1CCN(C(=O)CCc2nnc3ccc(NCCCN4CCCC4=O)nn23)CC1,9.57
22,Cc1[nH]c2ccc(-c3n[nH]c(=S)n3-c3ccc(Br)cc3)cc2c1C,16.6

row,SMILES,"hERG current change (%, negative = inhibition) at 10uM [%]"
1,OCC(Cc1ccccc1)NCc1ccccc1C(F)(F)F (stereo not drawn),-8.24
2,O=C(NCCc1ccc(Cl)cc1)C1CCC(=O)N1C1CCCC1 (stereo not drawn),6.58
3,CCOC(=O)N1CCN(c2c(NCCN3CCN(c4ccccc4F)CC3)c(=O)c2=O)CC1,7.57
4,O=C1Nc2ccccc2/C1=C/c1cnc[nH]1,-6.9
5,Cc1ccc(NC(=O)Nc2ccc3c(c2)nc(C)n3C)cc1C,-5.18
6,CC(=O)c1ccc(NC(=O)C2CCCN2S(=O)(=O)c2cccc3cccnc23)cc1 (stereo not drawn),7.11
7,CC1C2CC(C(S(=O)(=O)N3CCOCC3)C2=O)C1(C)C (stereo not drawn),2.86
8,NS(=O)(=O)c1ccc(N/C=C\C(=O)c2cccc3ccccc23)cc1,-11.2
9,COC(=O)c1ccc(C23CC4(C2)[C@H](CN(CC2CCCCC2)[C@@H]4c2ccccc2)C3c2ccccc2)cc1 (stereo partly drawn),6.05
10,CC1C=Cc2ccccc2N1C(=O)c1ccccc1 (stereo not drawn),-16
11,COc1ccc(-c2ccnc(SCC(=O)c3ccc(Cl)cc3)n2)cc1,21.9
12,Cc1cccc(N2CCN(C(=O)c3cccc(NC4=NC5CS(=O)(=O)CC5S4)c3)CC2)c1C (stereo not drawn),0.879
13,O=[N+]([O-])c1ccc(O)c(/C=N/n2cnnc2)c1,-5.11
14,Cc1cc(C2N=C(N)Nc3nc4ccccc4n32)c(C)n1-c1ccccc1Cl (stereo not drawn),4.77
15,O=C(N/N=C\c1coc2ccccc2c1=O)c1ccco1,6.25
16,Cc1ccc(-c2nnc(NC(=O)c3ccc([N+](=O)[O-])o3)o2)c(C)c1,-13.3
17,COc1ccc(S(=O)(=O)Nc2cccc(-c3ccc4nncn4n3)c2)cc1F,9.83
18,COc1ccccc1/C=C1\SC(=S)N(NS(=O)(=O)c2ccc(C)cc2)C1=O,-8.24
19,N#Cc1ccc(OCC(=O)N/N=C(\CCC(=O)O)c2cccs2)cc1,12.8
20,NC(=O)CSc1n[nH]c(-c2ccco2)n1,24
21,CC(C)CC(=O)Nc1ccc(Cc2ccncc2)cc1,10.1
22,CCC(=O)NC(c1cc(Cl)c2ccccc2c1O)C(C)C (stereo not drawn),4.25

row,SMILES,"hERG current change (%, negative = inhibition) at 10uM [%]"
1,CCCC/C(C)=N\NC(=O)CNS(=O)(=O)c1ccc([N+](=O)[O-])cc1,-2.14
2,COc1ccc(OCC(=O)Nn2c(-c3ccc(C)cc3)nc3ccccc3c2=O)cc1,8.87
3,Cc1ccc(C(=O)Oc2ccc(N3C(=O)CCC3=O)c(C)c2)cc1,2.87
4,CC(=O)c1cccc(CN2CCC(CO)(CCOc3ccccc3)CC2)c1,-41.5
5,CCOc1ccc(S(=O)(=O)Nc2ccccn2)c2ccccc12,10.7
6,CCN(CC)Cc1nc2c(c(=O)[nH]1)C1(CCCC1)Cc1ccccc1-2,-14.5
7,CCOC(=O)/C=C/C(=O)OCC(=O)Nc1ccc(OC)c(Cl)c1,6.24
8,O=C(Nc1ccccc1)n1ccc(-c2ccc(-n3ccnc3)cc2)n1,17.1
9,COc1cc(/C=C2\SC(=S)N(CC(=O)O)C2=O)ccc1OS(=O)(=O)c1ccc(C)cc1,13.7
10,CC1C/C(=C\c2cccnc2)C(=O)/C(=C/c2cccnc2)C1 (stereo not drawn),-63.1
11,CCCCN(CCCC)CCNC(=O)CN1C(=O)CSc2ccc(S(=O)(=O)N3CCCCC3)cc21,-74.7
12,COc1cc(/C=C/c2ccc3cccc(O)c3n2)c(Br)cc1O,21.3
13,CCOC(=O)c1c(NC(=O)Nc2ccccc2)sc(C)c1C,3.63
14,NC(=O)c1cc(S(=O)(=O)N2CCN(c3cccc(Cl)c3)CC2)cs1,28.1
15,CCOC(=O)Nc1nc(-c2ccc(Cl)cc2Cl)cs1,11.7
16,S=C(NCC1COc2ccccc2O1)Nc1ccccc1 (stereo not drawn),2.3
17,COCCn1c(SCC(=O)Nc2ccc(F)cc2)nc2c([nH]c3ccccc32)c1=O,0.692
18,CCCN(CCC)Cc1c(C(=O)OCC)nnn1-c1nonc1N,-12.7
19,O=C(N/N=C/c1cccs1)c1ccc2c(c1)OCO2,-14.3
20,Oc1ccc2ccccc2c1C=Nc1ccc(Cl)cn1,0.0628
21,Cc1cc(-c2ccccc2)nc(N/N=C/c2ccco2)n1,-0.804
